Measurements as given in paper PMC5362245, “Depletion of Arabidopsis SC35 and SC35-like serine/arginine-rich proteins affects the transcription and splicing of a subset of genes”.
These are yes or no findings as the source states them, for the method shown. For part of these data: In cells and extracts the contact can be indirect. Some binding calls cover weakened binding; strength is not graded here. Where a sequence is shown, tags or fusion partners need not be part of it.

T1: SCL30a (yeast two-hybrid fusion, pGBKT7) (Arabidopsis thaliana) (UniProt Q9LHP2)
T1 sequence: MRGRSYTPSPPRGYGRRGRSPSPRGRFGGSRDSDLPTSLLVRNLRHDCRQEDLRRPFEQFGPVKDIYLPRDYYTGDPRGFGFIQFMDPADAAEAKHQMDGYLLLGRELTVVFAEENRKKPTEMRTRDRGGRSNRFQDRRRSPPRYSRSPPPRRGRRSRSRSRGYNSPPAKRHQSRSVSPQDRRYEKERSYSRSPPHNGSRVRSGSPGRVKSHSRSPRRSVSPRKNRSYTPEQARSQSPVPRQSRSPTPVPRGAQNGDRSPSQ

T2: SCL28 (yeast two-hybrid fusion, pGBKT7) (Arabidopsis thaliana) (UniProt Q1PDV2)
T2 sequence: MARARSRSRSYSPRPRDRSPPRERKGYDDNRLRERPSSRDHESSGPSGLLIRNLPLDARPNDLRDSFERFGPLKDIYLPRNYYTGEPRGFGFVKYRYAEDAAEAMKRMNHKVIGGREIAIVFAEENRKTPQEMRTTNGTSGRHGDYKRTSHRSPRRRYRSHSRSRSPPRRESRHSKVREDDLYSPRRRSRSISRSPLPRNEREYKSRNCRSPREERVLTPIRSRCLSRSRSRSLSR

T3: SC35 (yeast two-hybrid fusion, pGBKT7) (Arabidopsis thaliana) (UniProt Q9FMG4)
T3 sequence: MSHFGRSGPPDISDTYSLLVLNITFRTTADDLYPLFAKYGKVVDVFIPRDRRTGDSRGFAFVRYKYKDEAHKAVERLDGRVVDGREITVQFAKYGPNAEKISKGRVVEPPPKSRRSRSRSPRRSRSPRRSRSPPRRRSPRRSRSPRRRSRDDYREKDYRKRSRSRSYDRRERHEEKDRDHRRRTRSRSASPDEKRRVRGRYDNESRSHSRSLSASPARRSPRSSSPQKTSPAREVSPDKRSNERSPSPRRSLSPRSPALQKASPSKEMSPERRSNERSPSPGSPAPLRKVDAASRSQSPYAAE

T4: SCL33 (yeast two-hybrid fusion, pGBKT7) (Arabidopsis thaliana) (UniProt Q9SEU4)
T4 sequence: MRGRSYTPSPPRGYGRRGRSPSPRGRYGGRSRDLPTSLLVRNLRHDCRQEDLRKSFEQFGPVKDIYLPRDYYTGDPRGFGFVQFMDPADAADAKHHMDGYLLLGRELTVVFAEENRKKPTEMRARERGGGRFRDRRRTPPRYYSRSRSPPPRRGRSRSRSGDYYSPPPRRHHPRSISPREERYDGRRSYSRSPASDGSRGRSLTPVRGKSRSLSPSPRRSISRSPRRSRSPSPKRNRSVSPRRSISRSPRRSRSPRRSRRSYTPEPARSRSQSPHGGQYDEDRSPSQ

T5: SCL30 (yeast two-hybrid fusion, pGBKT7) (Arabidopsis thaliana) (UniProt Q8L3X8)
T5 sequence: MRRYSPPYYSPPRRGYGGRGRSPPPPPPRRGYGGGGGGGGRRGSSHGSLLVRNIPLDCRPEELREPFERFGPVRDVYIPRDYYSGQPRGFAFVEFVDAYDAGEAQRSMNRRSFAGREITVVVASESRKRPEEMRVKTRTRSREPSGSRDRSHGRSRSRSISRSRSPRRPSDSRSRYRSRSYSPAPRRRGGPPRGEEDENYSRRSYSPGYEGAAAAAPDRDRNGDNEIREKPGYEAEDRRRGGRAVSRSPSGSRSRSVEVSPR

T6: NRPB4-YFP (UniProt O48890)
T6 sequence: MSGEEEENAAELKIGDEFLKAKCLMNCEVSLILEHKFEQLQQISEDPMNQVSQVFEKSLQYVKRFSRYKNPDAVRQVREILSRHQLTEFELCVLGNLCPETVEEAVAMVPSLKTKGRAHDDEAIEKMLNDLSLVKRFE


Tests used:
[1] = target: T1, SCL30a (yeast two-hybrid fusion, pGBKT7) (Arabidopsis thaliana); assay: two-hybrid; yeast strain AH109, pGBKT7 and pGADT7 constructs cotransformed pairwise; selection on SD-Trp-Leu-His-Ade and SD-Trp-Leu-His + 5 mM 3-AT; 30°C, 3-6 d
[2] = target: T2, SCL28 (yeast two-hybrid fusion, pGBKT7) (Arabidopsis thaliana); assay: as above
[3] = target: T3, SC35 (yeast two-hybrid fusion, pGBKT7) (Arabidopsis thaliana); assay: as above
[4] = target: T4, SCL33 (yeast two-hybrid fusion, pGBKT7) (Arabidopsis thaliana); assay: as above
[5] = target: T5, SCL30 (yeast two-hybrid fusion, pGBKT7) (Arabidopsis thaliana); assay: as above
NRPB4-YFP = target: T6, NRPB4-YFP; assay: co-IP; SC35/SCL-Flag and NRPB4-YFP co-infiltrated into tobacco leaves; extract (50 mM Tris-HCl pH 8.0, 150 mM NaCl, 0.5% Triton X-100) incubated with GFP agarose beads 3-4 h at 4°C; blot with anti-Flag and anti-GFP

Binder | binding [1] | binding [2] | binding [3] | binding [4] | binding [5] | binding (NRPB4-YFP)
U2AF65a (yeast two-hybrid fusion, pGADT7) (protein, UniProt O23212 1-573) MSEFEDHEGNGTVADAIYDEENGGRDGEIEDQLDSKPKRESRDHERETSRSKDREREKGRDKDRERDSEVSRRSRDRDGEKSKERSRDKDRDHRERHHRSSRHRDHSRERGERRERGGRDDDDYRRSRDRDHDRRRDDRGGRRSRRSRSRSKDRSERRTRSRSPSKSKQRVSGFDMAPPASAMLAAGAAVTGQVPPAPPTLPGAGMFPNMFPLPTGQSFGGLSMMPIQAMTQQATRHARRVYVGGLSPTANEQSVATFFSQVMAAVGGNTAGPGDAVVNVYINHEKKFAFVEMRSVEEASNAMSLDGIIFEGAPVKVRRPSDYNPSLAATLGPSQPSPHLNLAAVGLTPGASGGLEGPDRIFVGGLPYYFTESQVRELLESFGGLKGFDLVKDRETGNSKGYAFCVYQDLSVTDIACAALNGIKMGDKTLTVRRANQGTMLQKPEQENVLLHAQQQIAFQRVMLQPGAVATTVVCLTQVVTEDELRDDEEYGDIMEDMRQEGGKFGALTNVVIPRPSPNGEPVAGLGKVFLKYADTDGSTRARFGMNGRKFGGNEVVAVYYPEDKFEQGDYGA | binds | binds | binds | binds | binds | –
U1-70K (yeast two-hybrid fusion, pGADT7) (protein, UniProt Q42404 1-427) MGDSGDPFLRNPNAAVQARAKVQNRANVLQLKLMGQSHPTGLTNNLLKLFEPRPPLEYKPPPEKRKCPPYTGMAQFVSNFAEPGDPEYAPPKPEVELPSQKRERIHKLRLEKGVEKAAEDLKKYDPNNDPNATGDPYKTLFVSRLNYESSESKIKREFESYGPIKRVHLVTDQLTNKPKGYAFIEYMHTRDMKAAYKQADGQKIDGRRVLVDVERGRTVPNWRPRRLGGGLGTSRVGGGEEIVGEQQPQGRTSQSEEPSRPREEREKSREKGKERERSRELSHEQPRERSRDRPREDKHHRDRDQGGRDRDRDSRRDRDRTRDRGDRDRRDRDRGRDRTSRDHDRDRSRKKERDYEGGEYEHEGGGRSRERDAEYRGEPEETRGYYEDDQGDTDRYSHRYDKMEEDDFRYEREYKRSKRSESREYVR | binds | binds | binds | binds | binds | –
SCL28-Flag (protein, UniProt Q1PDV2 1-236) MARARSRSRSYSPRPRDRSPPRERKGYDDNRLRERPSSRDHESSGPSGLLIRNLPLDARPNDLRDSFERFGPLKDIYLPRNYYTGEPRGFGFVKYRYAEDAAEAMKRMNHKVIGGREIAIVFAEENRKTPQEMRTTNGTSGRHGDYKRTSHRSPRRRYRSHSRSRSPPRRESRHSKVREDDLYSPRRRSRSISRSPLPRNEREYKSRNCRSPREERVLTPIRSRCLSRSRSRSLSR | – | – | – | – | – | binds
SCL30-Flag (protein, UniProt Q8L3X8 1-262) MRRYSPPYYSPPRRGYGGRGRSPPPPPPRRGYGGGGGGGGRRGSSHGSLLVRNIPLDCRPEELREPFERFGPVRDVYIPRDYYSGQPRGFAFVEFVDAYDAGEAQRSMNRRSFAGREITVVVASESRKRPEEMRVKTRTRSREPSGSRDRSHGRSRSRSISRSRSPRRPSDSRSRYRSRSYSPAPRRRGGPPRGEEDENYSRRSYSPGYEGAAAAAPDRDRNGDNEIREKPGYEAEDRRRGGRAVSRSPSGSRSRSVEVSPR | – | – | – | – | – | binds
SCL33-Flag (protein, UniProt Q9SEU4 1-287) MRGRSYTPSPPRGYGRRGRSPSPRGRYGGRSRDLPTSLLVRNLRHDCRQEDLRKSFEQFGPVKDIYLPRDYYTGDPRGFGFVQFMDPADAADAKHHMDGYLLLGRELTVVFAEENRKKPTEMRARERGGGRFRDRRRTPPRYYSRSRSPPPRRGRSRSRSGDYYSPPPRRHHPRSISPREERYDGRRSYSRSPASDGSRGRSLTPVRGKSRSLSPSPRRSISRSPRRSRSPSPKRNRSVSPRRSISRSPRRSRSPRRSRRSYTPEPARSRSQSPHGGQYDEDRSPSQ | – | – | – | – | – | no binding

More lines, now with the values ahead:

binding [1] | binding [2] | binding [3] | binding [4] | binding [5] | binding (NRPB4-YFP) | Binder
– | – | – | – | – | no binding | SCL30a-Flag (protein, UniProt Q9LHP2 1-262) MRGRSYTPSPPRGYGRRGRSPSPRGRFGGSRDSDLPTSLLVRNLRHDCRQEDLRRPFEQFGPVKDIYLPRDYYTGDPRGFGFIQFMDPADAAEAKHQMDGYLLLGRELTVVFAEENRKKPTEMRTRDRGGRSNRFQDRRRSPPRYSRSPPPRRGRRSRSRSRGYNSPPAKRHQSRSVSPQDRRYEKERSYSRSPPHNGSRVRSGSPGRVKSHSRSPRRSVSPRKNRSYTPEQARSQSPVPRQSRSPTPVPRGAQNGDRSPSQ
– | – | – | – | – | no binding | SC35-Flag (protein, UniProt Q9FMG4 1-303) MSHFGRSGPPDISDTYSLLVLNITFRTTADDLYPLFAKYGKVVDVFIPRDRRTGDSRGFAFVRYKYKDEAHKAVERLDGRVVDGREITVQFAKYGPNAEKISKGRVVEPPPKSRRSRSRSPRRSRSPRRSRSPPRRRSPRRSRSPRRRSRDDYREKDYRKRSRSRSYDRRERHEEKDRDHRRRTRSRSASPDEKRRVRGRYDNESRSHSRSLSASPARRSPRSSSPQKTSPAREVSPDKRSNERSPSPRRSLSPRSPALQKASPSKEMSPERRSNERSPSPGSPAPLRKVDAASRSQSPYAAE
